Article PMC7819943, “Rice protein-binding microarrays: a tool to detect cis-acting elements near promoter regions in rice”
The other results are listed elsewhere or left out.

Each sequence was assayed against T1, OsWOX13 (Oryza sativa, UniProt Q5QMM3 1-267) (assay: protein-binding microarray (RPBM); PBS, 2% BSA, 51.3 ng/ul salmon testes DNA, 50 uM zinc acetate, 200 nM TF, 25 C, 1 h; high values mean tight binding). Conditions: protein: recombinant; tags: N-terminal polyhistidine and DsRed monomer fusion (pET32a); label: CyDye5-dUTP incorporated in the synthesized complementary strand; 3' TTTTT single-stranded linker to array surface; dsDNA, one strand shown.
T1 sequence: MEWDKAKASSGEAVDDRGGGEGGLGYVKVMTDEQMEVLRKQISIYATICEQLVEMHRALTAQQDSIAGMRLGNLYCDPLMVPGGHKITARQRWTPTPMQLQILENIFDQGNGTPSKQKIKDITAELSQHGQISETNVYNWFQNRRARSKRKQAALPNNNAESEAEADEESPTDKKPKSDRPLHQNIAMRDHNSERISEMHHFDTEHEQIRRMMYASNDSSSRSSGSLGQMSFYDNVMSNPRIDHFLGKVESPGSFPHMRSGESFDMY
In short: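 Transcription factors, each fused N-terminally to a polyhistidine tag and DsRed, were expressed in E. coli BL21-CodonPlus and purified on Ni–NTA. A custom Agilent array was made double-stranded by primer extension with Cy5-dUTP and blocked with 2% BSA. It was incubated with 200 nM protein in PBS, 2% BSA, salmon testes DNA and 50 µM zinc acetate at 25 °C for 1 h, then washed. The binding signal is per-feature fluorescence intensity (arbitrary units) read on an Axon 4000B scanner.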

Sequence | binding signal
TATTCAATAACTAAATTAATGCCTGATTTACGTTGTTCGTCGGAGTCACCTAGTGCAG | 17400 fluorescence intensity (a.u.)
AGATATATGAAATTATAAATTACATGTTTGCGAGTATATTCGGAGTCACCTAGTGCAG | 5370 fluorescence intensity (a.u.)
GGTAAAAGAATAATTAGCTAGTAGCGACATGGCATCTACTCGGAGTCACCTAGTGCAG | 5620 fluorescence intensity (a.u.)
TATCATTAGGAGTGCTAATTTGTCTATTTAGTACCATTTTCGGAGTCACCTAGTGCAG | 3230 fluorescence intensity (a.u.)
AAATAAATTGTTGCCAAAACTTATTTAAATCACCTGACGCCGGAGTCACCTAGTGCAG | 17600 fluorescence intensity (a.u.)
TGCTACACATCTGAAACTGATTAGTGATTTCTTGTCTCCTCGGAGTCACCTAGTGCAG | 6470 fluorescence intensity (a.u.)
CTGGGTGTGGGTGTGGGTCTGGGTCTGGGTGGAAGAGGAACGGAGTCACCTAGTGCAG | 5770 fluorescence intensity (a.u.)
CTAATTTAAAATCTATCATTTTCTAAATTTGAAACGGTTTCGGAGTCACCTAGTGCAG | 17700 fluorescence intensity (a.u.)
AGCTCGTGGATTGGCAGATTAATCTTTGAATTTGCAAAGGCGGAGTCACCTAGTGCAG | 7350 fluorescence intensity (a.u.)
AAGATGGGGAAATTTAACAGATGAAATTTACCTCGAACGACGGAGTCACCTAGTGCAG | 7800 fluorescence intensity (a.u.)
ACTAATTAATTACTTGTAAGTTTTGTAACTCAACTTAAATCGGAGTCACCTAGTGCAG | 49200 fluorescence intensity (a.u.)
GACGAATTTATAGCTAATTTGCACTCAAGTAAGACAAACCCGGAGTCACCTAGTGCAG | 9530 fluorescence intensity (a.u.)
CGTCTAATCCGATTATAGATTGTTATATTCTCGGAGGGAGCGGAGTCACCTAGTGCAG | 9290 fluorescence intensity (a.u.)
CACATCAACCTGCACCAATCATGCCATCGAGATCACAACACGGAGTCACCTAGTGCAG | 3970 fluorescence intensity (a.u.)
GGCTGGTTATCTGATGAAATTATTGTGAATACCATACACTCGGAGTCACCTAGTGCAG | 4860 fluorescence intensity (a.u.)
CCCAATTTTACAATTAACGACCATCGCTTCGTCTGGTCGTCGGAGTCACCTAGTGCAG | 16100 fluorescence intensity (a.u.)
CATCAATCAACAGCCCCTTAATCCTTGCAGTTGATGTATACGGAGTCACCTAGTGCAG | 30600 fluorescence intensity (a.u.)
TCGTTACCGTTAATTATATAATTTACTGAGTAAATTATATCGGAGTCACCTAGTGCAG | 18000 fluorescence intensity (a.u.)
CAACTTTAAATTTGAGTGAAAATTTAAATTTTGGTCCTAACGGAGTCACCTAGTGCAG | 9350 fluorescence intensity (a.u.)
CCCTCAATAATTAGCGGCTCAGCCGTGTCACCACTAGGGTCGGAGTCACCTAGTGCAG | 17200 fluorescence intensity (a.u.)
CCTGATGCGTGATTTACTCATGGTGTAAATCACACGATCTCGGAGTCACCTAGTGCAG | 24600 fluorescence intensity (a.u.)

Sequence | binding signal
AAGTTGATTGGCACCAATTTTCGGAGATACGGAAGACATTCGGAGTCACCTAGTGCAG | 49100 fluorescence intensity (a.u.)
TTAAAACTCAATCAATCATATGTTAATACCATCTCGTTTTCGGAGTCACCTAGTGCAG | 29200 fluorescence intensity (a.u.)
TGTTGATTTTACAGGTGTAGATTTACATTTGATTGTACGCCGGAGTCACCTAGTGCAG | 37200 fluorescence intensity (a.u.)
CTAATTAACCGGTAATGTCGATCGAAACGATGACACATGCCGGAGTCACCTAGTGCAG | 19500 fluorescence intensity (a.u.)
ATAAATTTTATAAACTTGACTGCCTCTGGTTGTATATGCACGGAGTCACCTAGTGCAG | 23900 fluorescence intensity (a.u.)
TGAAATGACCGGACTCCTAATTGCAGATCATGATTTTCTGCGGAGTCACCTAGTGCAG | 8010 fluorescence intensity (a.u.)
TTTCCAAATTATACATTGTTCTTCTGGAACAATCTGTGATCGGAGTCACCTAGTGCAG | 3210 fluorescence intensity (a.u.)
ATGTAATCATTAATAAATTGTGTTGTATATCTCATTTAAACGGAGTCACCTAGTGCAG | 12600 fluorescence intensity (a.u.)
GAGGGAGGCGATTCAATCAAGAGCAAGAGTTGAGGGAGGTCGGAGTCACCTAGTGCAG | 4150 fluorescence intensity (a.u.)
AGCCAAGAACAATCAATTTCAATAACATAAGGTGAACTATCGGAGTCACCTAGTGCAG | 4450 fluorescence intensity (a.u.)
CCAATTTAATTTCTATGGCTTGATTTCCTCTTTGGCACAACGGAGTCACCTAGTGCAG | 16400 fluorescence intensity (a.u.)
CTTGATGGATGTTGTGGATGGAGGAGAGTGTTTTGATGCTCGGAGTCACCTAGTGCAG | 24800 fluorescence intensity (a.u.)
CCTAATTCGCGGAGATTGCAAGCTATTCGCACTAACATAGCGGAGTCACCTAGTGCAG | 10500 fluorescence intensity (a.u.)
AGTTACTTTTCAGTATTGATTATTTAAGTCAGTACTAAAGCGGAGTCACCTAGTGCAG | 3680 fluorescence intensity (a.u.)
ATAGTTAACAAAATTTGACAGCAAACTAAATGTAACCATTCGGAGTCACCTAGTGCAG | 27800 fluorescence intensity (a.u.)
TTTATGATTAGCATATGTGATGCTAAAGTAACATGTGCTACGGAGTCACCTAGTGCAG | 39400 fluorescence intensity (a.u.)
ACAAACAGAATTCAATAATTATGTAATCCTTATCTTGGGTCGGAGTCACCTAGTGCAG | 15300 fluorescence intensity (a.u.)
AATGTGATTATACATGCGAGTACATTAATAATCCTATCATCGGAGTCACCTAGTGCAG | 11300 fluorescence intensity (a.u.)
CATGATGGAAAGTCCAGCCCATATTCAACCATTCCGGCCGCGGAGTCACCTAGTGCAG | 6730 fluorescence intensity (a.u.)
TGGGCGGTTAATTTGACTTCGATGTTCAGTACCTTGTGGGCGGAGTCACCTAGTGCAG | 4180 fluorescence intensity (a.u.)
CAGTAATTAGTTAAATAAAGTTCCTTTGTAACTAGGCCAACGGAGTCACCTAGTGCAG | 35700 fluorescence intensity (a.u.)
